The labels stand for the following.
B1: CPEB3 Ribozyme (parent)
chain: UAACAGGGGGCCACAGCAGAAGCGUUCACGUCGCAGCCCCUGUCAGAUUCUGGUGAAUCUGCGAAUUCUGCUGUAUAUCUC

Read counts are not given, so values of variants with three or more changes are uncertain.

Variants of B1 are the subject of this data set. The data set is described as follows: self-cleavage, relative activity (ratio to wild type); higher = more cleavage; in vitro, sequencing. Put shortly:
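For each CPEB3 ribozyme variant, relative activity is its cleaved/total read fraction divided by the unmutated ribozyme's. Barcoded error-prone PCR libraries were transcribed by T7 RNA polymerase (5 hours, 37°C) and held in DNase I for 15 min before an EDTA stop, with cleavage occurring throughout. Template-switching reverse transcription and Illumina sequencing were used to read the RNAs. A 5-read minimum applied, and results are the mean of three batches.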
For the variant UAACAAGGGGCCACAGCAGAAGCGUUCCCGUCGCAGCCCCUGUCAGAUUCUGGCGAAUCUGCGUAUUCUGCUGUAUGUCUC [G6A A28C U54C A64U A77G], the self-cleavage turned out to be 0.05.
The result for UAACAAGGGGCCACAGCAGAAGCGUUCACGUCGCAGCCCCUGUCAGAUUCUGGUGGAUCUGCGAAUUCUCCUGUAUAUCUC [G6A A56G G70C] reads 0.08.
The result for UAACAAGGGGCCACAGCAGAAGCGCUCACGUCGCAGCCCCUGUCAGAUUCUGGUGCAUCUGCGAAUUCUGCUGUAUAUCUC [G6A U25C A56C] reads 0.11.
Under UAACAAGGGGCCACAGCAGAAGCGUUAACGUCGCAGCCCCUGUCAGAUUCUGGUGAAUCUGCGAAUUCUGCUGUGUAUCUC [G6A C27A A75G] stands 0.2; under UAACAAGGGGCCACAGCAGAAGCGUUCACGUCGCAGUCCCUGUCAGAUUCAGGUGAAUCUGCGAAUUCUGCUGUAUAUCUC [G6A C37U U51A], 0.07; under UAACAAGGGGCCACAGCAGAGGCGUUCACGCCGCAGCCCCUGUCAGAUUCUGGUGAAUCUGCGAAUACUGCUGUAUAUCUC [G6A A21G U31C U67A], 0.05.
Take UAACAAGGUGCCACAGCAGAAGCGUUCGCGUCGCAGCCCCUGUCAGAUUCUGGUGAGUCUGCGAAUUCUGCUGUAUAUCUC [G6A G9U A28G A57G]: the self-cleavage came to 0.09.
Consider UAACAAGGGGCCACAGCAGAAGCGUUCACGUCGCAGCUCCUGUCAGAUUCGGGUGAAUCUGCGAAUUCUGCUGUAUAUCUC [G6A C38U U51G], for which the self-cleavage was found to be 0.12.
On to UAACAAGGGACCACAGCAGAAGCGUUCACGUCGCAGCCCCUGUCAGAUACUGGUGGAUCUGCGAAUUCUGCCGUAUAUCUC [G6A G10A U49A A56G U72C], for which the self-cleavage was found to be 0.2.
The result for UAACAAGGGGCCAAAGCAGUAGCGUUCACGUCGGAGCCCCUGUCAGAUUCUGGUGAAUCUGCGAAUUCUGCUGUAUAUCUC [G6A C14A A20U C34G] reads 0.06.
UAACAAGGGGCCACAGCAGUAGCGUUCACGUCGCAGCCCCUGUCAGAUUCUGGAGAAUCUGCGAAUUCAGCUGUAUAUCUC [G6A A20U U54A U69A]: the self-cleavage turned out to be 0.11.
The result for UAACAAGGGGCUACAGCAGAAGCGUUCGCGUCGCAGCCCCCGUCAGAUUCUGGUGAAUCUGCGAAUUCUGCUGUAUAUCUA [G6A C12U A28G U41C C81A] reads 0.23; that for UAACAAGGGGCCACAGCAGAAGCGUUCACGUCGCAGUCCCUGUCAGAUUCUGGUGAUUCUGCGAGUUCUGCUGUAUAUCUC [G6A C37U A57U A65G], 0.13; that for UAACAAGGGGCCACAGCAGAAGCGUCCACGUCGCAGCCCCUGUCCGACUCUGGUGGAUCUGCGAAUUCUGCUGUAUACCUC [G6A U26C A45C U48C A56G U78C], 0.07.
The result for UAACAAGGGGCCACAGCAGAAGCGUUCGCGUCGCAGCCCCUGUCAGAUUCUGGUGGGUCGGCGAAUUCCGCUGUAUAUCUC [G6A A28G A56G A57G U60G U69C] reads 0.03; that for UAACAAGGGGCCACAGCAGUAGCGUUCACGUCGCAGCCCGUGUCAGAUUCUGGUGAAUCUGCGAAUUCAGCUGUAUAUCUC [G6A A20U C40G U69A], 0.17.
Under UAACAAGGGGCCACAGCAGGAGCGUUCACGUCGCAGCCCCUGUCAGACUCCGGUGAGUCUGCGAAUUCUGCUGUAUAUCUC [G6A A20G U48C U51C A57G] stands 0.12; under UAACAAGGGGCCACAGCAGGAGCGUUCACGUCGCAGCCCCUGUCAGAUUCUGGUGAAUCCGCGAAUUCUGCUGUAUAUCUC [G6A A20G U60C], 0.35.
For UAACAAGGGGCCACAGCAGAAGCGUUCACGUCGCAGCCCCUGUCAGAUUCUGAUGUACCUGCGAAUUCUGCUGUAUAUCUC [G6A G53A A56U U58C], the self-cleavage was 0.05.
Under UAACAAGGGGCCACAGGAGAAGCGUUCACGUCGCUGCCCCUGUCAGAUACUGGUGAAUCUGCGAAUUCUGCGGUACAUCUC [G6A C17G A35U U49A U72G U76C] stands 0.06; under UAACAAGGGGCCACAGCAGAAGCGUUUACGUCGCGGCCCCUGUCAGAUUCUGGUGAAUCUGCGAAUUCAGCUGUUUAUCUC [G6A C27U A35G U69A A75U], 0.11; under UAACAAGGGGCCACAGCAGAUGCGUUCACGUCGCAGCCCCUGUCAGAUUAUGGUGAAACUGCGAAUUCUGCUGUAUAUCUC [G6A A21U C50A U58A], 0.07.
The result for UAACAAGGGGCCACAGCAAAAGCGCUCACGACGCAGCCCCCGUCAGAUUCAGGUGAAUCUGCGAAUUCUGCUGUAUAUCUC [G6A G19A U25C U31A U41C U51A] reads 0.05.
The result for UAACAAGGGGCCACAGCAGAAGCGUUCACGUCGCAGCCCCUGUCGGAUUCUGGUGAAUCUGCGAAUCCUGCCGUAUAUCUC [G6A A45G U67C U72C] reads 0.09; that for UAACAAGGGGCCACACCAGAAGCGUUCGCGUCGCAGCCCCUGUCAGAUUCUGGUGAAUCUGCGAAUUCUGCUGUACAUCUC [G6A G16C A28G U76C], 0.07.
On to UAACAAGGGGCCACAGCAGAAGCGUUCGCGUCGCAGCCCCUGUCGGAUUCUGGUGAAUCUGCGAAUUCUGCUGUGUAUCUC [G6A A28G A45G A75G], for which the self-cleavage was 0.03.
The result for UAACAAGGGGCCACAGCAGAAGCGUUCACGUCGCAGUCCCUGUCAGAUUCAGGUGAAUCUGCGAAUUCCGCUGUAUAUCUC [G6A C37U U51A U69C] reads 0.13; that for UAACAAGGGGUCGCGGCAGAGGCGUUCACGUCGCAGCCCCUGUCAGAUUCUGGUGAAUCUGCGAAUUCUGCUGUAUAUCUC [G6A C11U A13G A15G A21G], 0.07.
Under UAACAAGGGGCCACAGCAGGAGCGUUCACGUCGCAGCCCCUGUCAGAUUCAGGUGAAUCUGCGAAUUCUGCUGUAUAUCUC [G6A A20G U51A] stands 0.32; under UAACAAGCGGCCACAGCAGUAGCGUUCACGCCGCAGCCCCUGUCAGAUUCUGGUGAAUCAGCGAAUUCUGCUGUAUAUCUC [G6A G8C A20U U31C U60A], 0.18.
Under UAACAAGGGGCCACAGCAGAAGCGUUCACGUCGCAGCUCCUGUCAGAUUCUGGUGAAUCUGCGAAUUCUGCAGUAUAUCUC [G6A C38U U72A] stands 0.16.
For UAACAAGGGGCCACAGCAGAAGCGAUCACGUCGCAGCCCCUGUCAGAUUCUGGUGGAUCUGCGAAUUCUGCUGUAUAUCUC [G6A U25A A56G], the self-cleavage was 0.17.
Under UAACAAGGGGCCACAGCAGAAGCGUUCUCGUCGCAGCCCCUGUCAGAUUCUGGUGAAUCUGCGAAAUCUGCUGUAUUUCUC [G6A A28U U66A A77U] stands 0.1; under UAACAAGGGGCCACAGCAGAAGCGUUCACGUCGCAGCCCCUGUCGGAUUCUGGCGGUUCUGCGAAUUCUGCUGUAUAUCUC [G6A A45G U54C A56G A57U], 0.04.

These data come from the RNAGym collection of RNA variant scans (doi:10.1093/nar/gkz1192).
